Assay results as given in the supplement of paper PMC8728848.
Some of the results follow.

Columns and labels:
Assay in all cases: glycan array binding signal (z-score within array); higher = stronger binding
Settings in all cases: glycan notation: IUPAC condensed, linker removed
[1] = target: Neu5Ac(a2-6)GlcNAc(b1-4)GlcNAc(b1-4)GlcNAc
Procedure, shortened: (§1)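 Arrays were curated from the Consortium for Functional Glycomics database, 3228 in total, and kept only where the protein sequence was available. Binding is expressed as a within-array Z-score. This score was averaged across arrays of the same protein sequence at different concentrations or buffers and across linkers, and negative values can be read as non-binding.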

Neu5Ac(a2-8)Neu5Ac = target: Neu5Ac(a2-8)Neu5Ac
Procedure, shortened: as §1

[2] = target: Neu5Ac(a2-8)Neu5Ac(a2-3)Gal(b1-3)GalNAc(b1-4)[Neu5Ac(a2-3)]Gal(b1-4)Glc
Procedure, shortened: as §1

[3] = target: Neu5Ac(a2-8)Neu5Ac(a2-3)Gal(b1-3)GalNAc(b1-4)[Neu5Ac(a2-8)Neu5Ac(a2-3)]Gal(b1-4)Glc
Procedure, shortened: as §1

[4] = target: Neu5Ac(a2-8)Neu5Ac(a2-3)Gal(b1-4)Glc
Procedure, shortened: as §1

[5] = target: Neu5Ac(a2-8)Neu5Ac(a2-3)Gal(b1-4)GlcNAc
Procedure, shortened: as §1

[6] = target: Neu5Ac(a2-8)Neu5Ac(a2-3)[Gal(b1-3)GalNAc(b1-4)]Gal(b1-4)Glc
Procedure, shortened: as §1

[7] = target: Neu5Ac(a2-8)Neu5Ac(a2-3)[GalNAc(b1-4)]Gal(b1-4)Glc
Procedure, shortened: as §1

[8] = target: Neu5Ac(a2-8)Neu5Ac(a2-8)Neu5Ac
Procedure, shortened: as §1

[9] = target: Neu5Ac(a2-8)Neu5Ac(a2-8)Neu5Ac(a2-3)Gal(b1-4)Glc
Procedure, shortened: as §1

[10] = target: Neu5Ac(a2-8)Neu5Ac(a2-8)Neu5Ac(a2-3)[Gal(b1-3)GalNAc(b1-4)]Gal(b1-4)Glc
Procedure, shortened: as §1

[11] = target: Neu5Ac(a2-8)Neu5Ac(a2-8)Neu5Ac(a2-3)[GalNAc(b1-4)]Gal(b1-4)Glc
Procedure, shortened: as §1

[12] = target: Neu5Ac(a2-8)Neu5Ac(a2-8)Neu5Ac(a2-8)Neu5Ac(a2-3)[GalNAc(b1-4)]Gal(b1-4)Glc
Procedure, shortened: as §1

[13] = target: Neu5Ac(a2-8)Neu5Gc(a2-3)Gal(b1-4)GlcNAc
Procedure, shortened: as §1

[14] = target: Neu5Ac(b2-6)Gal(b1-4)GlcNAc
Procedure, shortened: as §1

Neu5Ac(b2-6)GalNAc = target: Neu5Ac(b2-6)GalNAc
Procedure, shortened: as §1

[15] = target: Neu5Ac9Ac(a2-3)Gal(b1-3)GlcNAc
Procedure, shortened: as §1

[16] = target: Neu5Ac9Ac(a2-3)Gal(b1-4)GlcNAc
Procedure, shortened: as §1

[17] = target: Neu5Ac9Ac(a2-6)Gal(b1-4)GlcNAc
Procedure, shortened: as §1

[18] = target: Neu5Gc(a2-3)Gal(b1-3)GlcNAc
Procedure, shortened: as §1

[19] = target: Neu5Gc(a2-3)Gal(b1-3)[Fuc(a1-4)]GlcNAc
Procedure, shortened: as §1

Neu5Gc(a2-3)Gal(b1-4)Glc = target: Neu5Gc(a2-3)Gal(b1-4)Glc
Procedure, shortened: as §1

[20] = target: Neu5Gc(a2-3)Gal(b1-4)GlcNAc
Procedure, shortened: as §1

[21] = target: Neu5Gc(a2-3)Gal(b1-4)GlcNAc(b1-3)Gal(b1-4)GlcNAc(b1-2)Man(a1-3)[Neu5Gc(a2-3)Gal(b1-4)GlcNAc(b1-3)Gal(b1-4)GlcNAc(b1-2)Man(a1-6)]Man(b1-4)GlcNAc(b1-4)GlcNAc
Procedure, shortened: as §1

[22] = target: Neu5Gc(a2-3)Gal(b1-4)[Fuc(a1-3)]GlcNAc
Procedure, shortened: as §1

[23] = target: Neu5Gc(a2-6)Gal(b1-4)GlcNAc
Procedure, shortened: as §1

Neu5Gc(a2-6)GalNAc = target: Neu5Gc(a2-6)GalNAc
Procedure, shortened: as §1

[24] = target: Neu5Gc(a2-8)Neu5Ac(a2-3)Gal(b1-4)GlcNAc
Procedure, shortened: as §1

[25] = target: Neu5Gc(a2-8)Neu5Gc(a2-3)Gal(b1-4)GlcNAc
Procedure, shortened: as §1

[26] = target: Neu5Gc(a2-8)Neu5Gc(a2-3)Gal(b1-4)GlcNAc(b1-3)Gal(b1-4)GlcNAc
Procedure, shortened: as §1

[27] = target: Neu5Gc(a2-8)Neu5Gc(a2-6)Gal(b1-4)GlcNAc
Procedure, shortened: as §1

[28] = target: Neu5Gc(b2-6)Gal(b1-4)GlcNAc
Procedure, shortened: as §1

B1: AT5G01260(PC)(40) (Arabidopsis thaliana), Q9LFB0 (protein)
chain: MIGIGRTLTSSSPSKIILEDLPPGIYRYGTEIFTSVPRKTFHHIKFLRLDSAQSSRILKPVPLRSSSIKDSQVNVEDEEIEASNKTVRVRFQLRKECVFGEHFFIVGDDPVFGGLWDPETALPLNWSDGNVWTVDLDLPVGRLVEFKLLLKAQTGEILWQPGPNRALETWETNKTIRICEDWDNADLQMMIEEDFVPYTNISSIGSEDEDEVLGSVQQNSSVVAVENAGYVSDESAQNSSFSIQSEKTMEPSNGALTAREVIKEAMFTEEESPVLVPGLIPLSDLDNEQVEVINEGKAETFPEVDKKQEPKAERNKKAKVKAISLFEKSEQEAVKSVEQRQYNAVEEEQQRLETEPLGTPDVLFENDIQWGRRTLYKLLSNFRLF
glycan array binding signal (z-score) [1]: 0.3
glycan array binding signal (z-score) (Neu5Ac(a2-8)Neu5Ac): 0.074
glycan array binding signal (z-score) [2]: -0.412
glycan array binding signal (z-score) [3]: 1.02
glycan array binding signal (z-score) [4]: 0.641
glycan array binding signal (z-score) [5]: -0.077
glycan array binding signal (z-score) [6]: 0.612
glycan array binding signal (z-score) [7]: 0.746
glycan array binding signal (z-score) [8]: -0.58
glycan array binding signal (z-score) [9]: 0.679
glycan array binding signal (z-score) [10]: -0.665
glycan array binding signal (z-score) [11]: -0.154
glycan array binding signal (z-score) [12]: 0.413
glycan array binding signal (z-score) [13]: 0.029
glycan array binding signal (z-score) [14]: -0.156
glycan array binding signal (z-score) (Neu5Ac(b2-6)GalNAc): -0.728
glycan array binding signal (z-score) [15]: -0.666
glycan array binding signal (z-score) [16]: -0.427
glycan array binding signal (z-score) [17]: -0.05
glycan array binding signal (z-score) [18]: -0.145
glycan array binding signal (z-score) [19]: -0.249
glycan array binding signal (z-score) (Neu5Gc(a2-3)Gal(b1-4)Glc): 0.948
glycan array binding signal (z-score) [20]: -0.06
glycan array binding signal (z-score) [21]: 0.832
glycan array binding signal (z-score) [22]: 0.055
glycan array binding signal (z-score) [23]: -0.103
glycan array binding signal (z-score) (Neu5Gc(a2-6)GalNAc): -0.306
glycan array binding signal (z-score) [24]: -0.014
glycan array binding signal (z-score) [25]: -0.671
glycan array binding signal (z-score) [26]: -0.294
glycan array binding signal (z-score) [27]: 0.02
glycan array binding signal (z-score) [28]: 0.159
